Measured values published in PubChem BioAssay.
Inconclusive means that the source gave no clear call. Such entries were picked first, then a sample of the others. Activity calls are given as the source filed them.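 The calls were made as follows: active = viability at or below 30% in both replicate assays; inconclusive = viability at or below 30% in just one of the two assays; inactive = the rest.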

Assay: HUVEC growth inhibition – cell-based, human, primary screen (AID 575);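 also: 100% = median of untreated cell wells with 0.1% DMSO on each plate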
Settings: HUVEC proliferation, CellTiter-Glo luminescence, 72 h; at 10 µM; active compounds read low
How it was run: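 Test system: primary human umbilical vein endothelial cells; medium: endothelial basal medium with 2% FBS plus growth supplements; dosing: 10 µM compound only; times: 72 h treatment at 37 °C; signal: CTG luminescence; read-out: % viability relative to median vehicle-well signal on each plate; control set: vehicle and MePR control wells; plate: 384-well, collagen-coated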

SMILES | viability
CCOc1ncccc1C(=O)OCC(=O)N1CC(=O)Nc2ccccc21 | inactive: 100%
O=S(=O)(Nc1ccc2c(c1)OCO2)c1ccc(Br)s1 | inconclusive: 27.5%
CCOC(=O)c1ccc(N=Cc2nc(-c3ccccc3)oc2OC(C)=O)cc1 | inconclusive: 40%
O=C(O)CCC(=O)Nc1ccc(S(=O)(=O)Nc2nccs2)cc1 | inactive: 75.4%
Cc1nc2sccn2c(=O)c1CCN1CCC(=C(c2ccccc2)c2ccc(F)cc2)CC1 | active: 3.02%
O=C(OCc1ccccc1F)c1ccc2c(c1)OCCO2 | inactive: 103%
c1ccc(-n2cnc3cc(NCc4ccccn4)ccc32)cc1 | inactive: 102%
CCOC(=O)c1cnc(-n2nc(C)cc2C)nc1Nc1ccc(N(C)C)cc1 | inconclusive: 38.5%
CS(=O)(=O)c1ncc(Cl)c(C(=O)Nc2ccc(N3CCOCC3)cc2)n1 | inconclusive: 28.4%
CCn1nnnc1SCC(=O)Nc1nc(-c2cccs2)cs1 | inactive: 83.8%
CN(C)CC(O)COc1ccc(-c2ccc(C#N)cc2)cc1 (centres undefined) | inconclusive: 34.6%
COCC(C)NC(=O)CCS(=O)(=O)c1nc(-c2ccc(OC)cc2)cc(C(F)(F)F)n1 (centres undefined) | active: 8.82%
O=C(CSc1n[nH]c(-c2ccco2)n1)Nc1sc2c(c1C(=O)Nc1ccccc1)CCCC2 | inconclusive: 33.4%
CC(=O)Nc1ccccc1OCC(=O)c1cc(C)n(Cc2cccs2)c1C | inconclusive: 48.4%
Cc1ccc2[nH]c(=O)c(CN(CCCN3CCOCC3)C(=O)Nc3cccc(Cl)c3)cc2c1 | inactive: 47%
COc1cc(NC(=O)c2cc(-n3cnnc3)ccc2Cl)cc(OC)c1 | inactive: 93.6%
COc1ccc(-n2cc(-c3ccccc3)c3c(N4CCN(CCO)CC4)ncnc32)cc1 | inconclusive: 31.2%
Oc1ccc(/C=C/c2cc(O)cc(O)c2)cc1 | inconclusive: 33.9%
COC(=O)c1ccc(CSc2nc3c(cnn3-c3ccc(C)c(C)c3)c(=O)[nH]2)o1 | active: 18.9%
CC(=O)c1ccc(-c2nc3ccccc3n2C)o1 | inactive: 96.7%

SMILES | viability
CC(=O)Nc1nc(C)c(-c2csc(Nc3ccc(O)cc3)n2)s1 | active: 19.7%
CCOC(=O)c1cnn(-c2sc(C(=O)OCC)c(C)c2C(=O)OCC)c1N | inconclusive: 44.5%
COC(=O)C(F)(F)Sc1c(C)[nH]c2ccccc12 | inconclusive: 47.2%
C=CCn1c(COc2ccccc2)nnc1SCC(=O)C(C)(C)C | inactive: 102%
CCC1CCc2c(sc3ncnc(N4CCOCC4)c23)C1 (centres undefined) | inconclusive: 45.2%
CN(C)c1ccc(NC(=O)Cn2cc3c(n2)CCCC3)cc1 | inconclusive: 51.8%
COc1ccc(-c2cc3c(=O)n(CC(=O)NC4CCN(Cc5ccccc5)CC4)ncn3n2)cc1 | inconclusive: 48.5%
CCCOc1ccccc1C1CC(=O)Nc2cc3c(cc21)OCCO3 (centres undefined) | inconclusive: 32%
CCc1nnc(NC(=O)c2cccc(C(=O)Nc3nnc(CC)s3)n2)s1 | active: 3.29%
CC1CCCCN1S(=O)(=O)c1ccc(NC(=O)c2cccs2)cc1 (centres undefined) | inconclusive: 32.8%
CCOC(=O)c1c(C)oc2c1c(C=NCc1ccccn1)c(O)c1ccccc12 | inconclusive: 24.7%
Cc1cc(C)c(C(=O)CSc2nnc(-c3ccccc3Br)o2)cc1C | inconclusive: 25.7%
COc1cccc(NC(=O)N(CCCN2CCOCC2)C(C)c2cc3cccc(OC)c3o2)c1 (centres undefined) | inactive: 99.9%
COc1cccc(-c2cc(C(F)(F)F)nc(NCc3ccco3)n2)c1 | inactive: 61.6%
CC1CCc2nc(NC(=O)CN3CCN(Cc4ccc5c(c4)OCO5)CC3)sc2C1 (centres undefined) | inconclusive: 26.9%
Cc1nc2ccccc2c2oc(C(=O)NCC3COc4ccccc4O3)cc12 (centres undefined) | inconclusive: 28.8%
CCC(=O)N1CCN(CCN=CC2=C(O)CC(C)(C)CC2=O)CC1 | inactive: 79.6%
Cc1cccn2c(=O)c3cc(C(=O)NC4CCCC4)c(=N)n(C4CCCC4)c3nc12 | inconclusive: 35.4%
Cc1ccc(C)n1-n1c(C)nc2sc(-c3ccccc3)cc2c1=O | inactive: 80.3%
